“And” between values parts separate entries of the source, which are not always exact repeats. Equal entries are not always repeated. The campaign covered roughly 410,000 compounds. About 5,000 (1.2%) were called active. The shares of active, inactive and inconclusive entries below differ from those in the screen. Calls come from the whole dose curve; as a rule, active = well fitted inhibition curve with a large enough effect; inconclusive = small, poorly fitted or top-dose-only effect; inactive = no such curve, though single readings can be large or run the other way. Where the call is inconclusive, the potency comes from a doubtful curve fit.
Assay: qHTS for Inhibitors of TGF-b; note: nearly all actives have a fitted effect of over 65% in size
Conditions: HepG2 CAGA-GFP TGF-b/SMAD3 reporter, GFP fluorescence, 18 h, TGF-beta stimulated, 500 pg/mL final; series mostly up to 46.1 µM
In short: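 Smad-responsive CAGA-GFP expression was quantified in HEPG2 cells exposed to compounds and 500 pg/mL final TGF-beta for 18 h at 37 degrees C; unstimulated wells defined full inhibition.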
In the case of `COCC1CCCCN1C(=O)c1ccc2oc(CCCc3ccccc3)nc2c1` (centres undefined), the Potency is reported as inconclusive: 35.5 µM [inhibitor, single point].
For `CCCCCCN1C[C@H](n2cc(COC(=O)c3ccccc3)nn2)[C@@H](O)C[C@@H]1c1ccccc1`, the Potency was inconclusive: 35.5 µM [inhibitor, single point].
With `O=C(C1CC(=O)N(C2CCCC2)C1)N1CCN(c2ccccc2F)CC1` (centres undefined) the Potency was inconclusive: 3.55 µM [inhibitor, single point].
With `COC(=O)c1ccc(NC(=O)CSc2nccn2CCc2ccccc2)cc1` the Potency was “inactive”.
For `CN(Cc1nc2c(s1)CCCC2)C(=O)CCc1nnc(-c2ccc3c(c2)OCO3)o1`, the Potency was inconclusive: 35.5 µM [inhibitor, single point].
For `O=C(COc1ccccc1Br)Nc1ccc(S(=O)(=O)N2CCCC2)cc1`, the Potency was “inactive”.
With `O=C(CN1CCN(Cc2ccccc2)CC1)NNC(=O)c1ccccc1` the Potency was “inactive”.
With `CSc1nc(NCc2ccccc2)c2c3c(sc2n1)CN(C)CC3` the Potency was “inactive”.
For `NS(=O)(=O)c1ccc(CCNC(=O)CN2CCN(Cc3cccc(C(F)(F)F)c3)CC2)cc1`, the Potency was inconclusive: 0.501 µM [inhibitor, partial curve, poor fit].
For `O=C(Nc1cc(F)ccc1F)C1CCN(C(=O)c2cnn(-c3ccccc3)c2-n2cccc2)CC1`, the Potency was inconclusive: 11.2 µM [inhibitor, single point].
For `O=C(c1cccc([N+](=O)[O-])c1)N1CCN(S(=O)(=O)/C=C/c2ccccc2)CC1`, the Potency was inconclusive: 35.5 µM [inhibitor, single point].
For `O=C(OCc1nc(-c2ccccc2Cl)no1)c1ccco1`, the Potency was inconclusive: 3.16 µM [inhibitor, full curve, poor fit].
With `O=C(Sc1ccc(Cl)cc1)c1cccc(Cn2cc(C(F)(F)F)ccc2=O)c1` the Potency was “inactive”.
For `Cc1cccc(-n2c(C)cc(/C=N/NC(N)=S)c2C)c1`, the Potency was inconclusive: 35.5 µM [inhibitor, single point].
For `FC(F)(F)c1cccc(CN2CCC(c3cc(-c4cccs4)n[nH]3)CC2)c1`, the Potency was inconclusive: 35.5 µM [inhibitor, single point].
With `Cc1ccsc1C(=O)OCC(=O)N(C)c1c(N)n(Cc2ccccc2)c(=O)[nH]c1=O` the Potency was inconclusive: 3.98 µM [inhibitor, partial curve, poor fit].
With `COc1ccc(-n2c(C)nc3c(cnn3-c3ccc(C)cc3)c2=O)cc1` the Potency was inconclusive: 11.2 µM [inhibitor, single point].
For `CCOc1ccccc1CNS(=O)(=O)c1ccc(-c2cnc(C3CC3)o2)cc1`, the Potency was active: 8.91 µM and active: 10 µM.
With `CSc1ccc(C2C(C#N)=C(N)Oc3cc4c(cc32)OCO4)cc1` (centres undefined) the Potency was active: 12.6 µM.
For `COc1ccc(S(=O)(=O)c2cn(C)c3cc(N4CCCCCC4)c(F)cc3c2=O)cc1`, the Potency was “inactive”.
With `Cc1ccc(-n2nc(CO)c(C(=O)NCc3cccnc3)n2)cc1C` the Potency was inconclusive: 35.5 µM [inhibitor, single point].
With `CNc1ccc(Br)cc(C(=O)/C=C/c2cccc(Cl)c2Cl)c1=O` the Potency was inconclusive: 35.5 µM [inhibitor, single point].
In the case of `COc1ccc(OC)c(NC=C2C(=O)OC(C)(C)OC2=O)c1`, the Potency is reported as inconclusive: 12.6 µM [inhibitor, single point].
For `O=C(CN1CCN(C2CCCCC2)CC1)c1c[nH]c2ccccc12`, the Potency was “inactive”.
In the case of `CN(CC(=O)Nc1ccc(Cl)c(C(F)(F)F)c1)C(=O)c1ccc(N2CCOCC2)c([N+](=O)[O-])c1`, the Potency is reported as inconclusive: 35.5 µM [inhibitor, single point].
With `CCOc1ccccc1Oc1c(C)oc2c(CN3CCN(CCO)CC3)c(O)ccc2c1=O` the Potency was “inactive”.
For `COc1cccc(CNC(=O)c2nn(C)c3c2CSc2ccccc2-3)c1`, the Potency was inconclusive: 35.5 µM [inhibitor, single point].
In the case of `OCCCNc1nccc(-c2cc(Nc3cccc(Cl)c3)ncn2)n1`, the Potency is reported as active: 0.447 µM.
In the case of `CCOc1ccccc1NC(=O)C(OC(=O)c1ccc(NC(=O)CC#N)cc1)c1ccccc1` (centres undefined), the Potency is reported as “inactive”.
In the case of `COc1ccccc1NC(=O)CSc1nnc2c(n1)[nH]c1ccccc12`, the Potency is reported as “inactive”.
For `CCCOc1ccc(F)cc1-c1cc(C(=O)Nc2ccc(OC)cc2OC)[nH]n1`, the Potency was inconclusive: 5.62 µM [inhibitor, single point].
For `O=C1CCCN1CC1CCN(Cc2nc(CC3CC3)no2)CC1`, the Potency was inconclusive: 35.5 µM [inhibitor, single point].
In the case of `COc1cc(OC)c(OC)cc1CNC(=O)c1cccc(S(=O)(=O)N2CCc3ccccc3C2)c1`, the Potency is reported as “inactive”.
With `COc1ccc(-n2c(=O)c3c4c(sc3n(CC(=O)NCc3ccco3)c2=O)CCC4)c(OC)c1` the Potency was “inactive”.
With `Cc1cc(C)cc(NC(=O)CN2C(=O)c3ccccc3Sc3ccc(C(=O)N4CCCC4)cc32)c1` the Potency was “inactive”.
In the case of `COc1ccc(N(C)C(=O)c2cc3c(s2)-c2ccccc2S(=O)(=O)C3)cc1`, the Potency is reported as inconclusive: 5.01 µM [inhibitor, partial curve].
In the case of `COc1ccc(Cc2nc(-c3ccc(Br)cc3)no2)cc1`, the Potency is reported as inconclusive: 17.8 µM [inhibitor, single point].
In the case of `CCN(C(=O)c1cc2c(=O)oc3ccccc3c2s1)c1ccccc1F`, the Potency is reported as inconclusive: 35.5 µM [inhibitor, single point].
For `COC(=O)c1ccc(NC(=O)CCN2CCOCC2)cc1`, the Potency was “inactive”.
With `Clc1ccc2[nH]c3c(N4CCC5(CC4)OCCO5)ncnc3c2c1` the Potency was “inactive”.
For `Cc1ccc(S(=O)(=O)N(CC(=O)N2CCc3ccccc3C2)c2ccc(Cl)c(Cl)c2)cc1`, the Potency was “inactive”.
With `NC(=S)NN=C1CCCCC12CCCC2` the Potency was “inactive”.
In the case of `Cc1cccc(CS(=O)(=O)Cc2ccc(C(=O)NCc3ccc(F)cc3)o2)c1`, the Potency is reported as inconclusive: 7.08 µM [inhibitor, partial curve].
In the case of `CCCCOc1ccc(CSC(=N)N)cc1Cl`, the Potency is reported as inconclusive: 35.5 µM [inhibitor, single point].
In the case of `Cc1ccccc1N(C(=O)CCCC(=O)Nc1ccccn1)C(C(=O)NC1CCCC1)c1ccc(O)cc1` (centres undefined), the Potency is reported as inconclusive: 35.5 µM [inhibitor, single point].
For `Cc1onc(C(=O)Nc2cccnc2Cl)c1[N+](=O)[O-]`, the Potency was “inactive”.
For `CSc1ccc(/C=N/NC(=O)CNc2ccc3ccccc3c2)cc1`, the Potency was inconclusive: 17.8 µM [inhibitor, partial curve, poor fit].
In the case of `COC(=O)c1ccccc1NC(=O)c1cc(OC)cc(OC)c1`, the Potency is reported as inconclusive: 3.98 µM [inhibitor, partial curve, poor fit].
For `CCOC(=O)c1c(C)oc2ccc(N(C(=O)c3ccncc3)S(=O)(=O)c3ccc(F)cc3C)cc12`, the Potency was inconclusive: 11.2 µM [inhibitor, partial curve, poor fit].
For `COc1ccccc1CNC(=O)[C@H](C)N1C(=O)N2CCc3c([nH]c4ccccc34)[C@@]2(C)C1=O`, the Potency was inconclusive: 11.2 µM [inhibitor, partial curve].
With `O=C(NCC(=O)N(c1ccccc1F)C(C(=O)NCC1CCCO1)c1ccccc1)c1ccco1` (centres undefined) the Potency was inconclusive: 3.16 µM [inhibitor, single point].
In the case of `COc1ccccc1NC(=O)COc1ccc(/C=N/NC(=O)CSCc2ccc(Cl)cc2)cc1`, the Potency is reported as “inactive”.
With `O=C(Nc1ccc(Cl)cc1)C1CCN(C(=O)NC2CCCCC2)CC1` the Potency was “inactive”.
For `CCCCOC(=O)c1ccc(NC(=O)c2ccc3c(c2)CCCN3S(C)(=O)=O)cc1`, the Potency was “inactive”.
In the case of `COc1cc2c(cc1OC)CN(CCC(=O)c1ccc(Br)cc1)CC2`, the Potency is reported as inconclusive: 35.5 µM [inhibitor, single point].
For `O=C(CSc1nc2ccccc2nc1Cc1ccc(Cl)cc1)N1CCCCC1`, the Potency was inconclusive: 1.26 µM [inhibitor, full curve, poor fit].
For `N#CCc1c(C#N)c(N)nc(N2CCN(S(=O)(=O)c3ccccc3F)CC2)c1C#N`, the Potency was “inactive”.
With `Cc1ccc(CNC(=O)C2CCN(S(=O)(=O)c3ccc4c(c3)CC(C)N4C(=O)C3CC3)CC2)cc1` (centres undefined) the Potency was “inactive”.
With `C[C@@H]1CC=C[C@@H]2[C@H]1C(=O)N(Cc1ccccc1)[C@H]2c1ccccc1Br` the Potency was inconclusive: 22.4 µM [inhibitor, single point].
In the case of `Cc1ccc(NC(=O)C2CCN(S(=O)(=O)c3ccc4c(c3)CCCC(=O)N4)CC2)c(Br)c1`, the Potency is reported as “inactive”.
In the case of `Cn1c(SCc2cccc(Br)c2)nnc1-c1ccncc1`, the Potency is reported as inconclusive: 14.1 µM [inhibitor, single point].
With `Fc1ccc(CNc2nc(-c3ccc(Cl)cc3)cc(C(F)(F)F)n2)cc1` the Potency was inconclusive: 14.1 µM [inhibitor, single point].
With `Cc1cccc(NS(=O)(=O)c2ccc3c(c2)n(C)c(=O)n3C)c1C` the Potency was inconclusive: 3.98 µM [inhibitor, partial curve, poor fit].
With `CC(C)(C)c1csc(NC(=O)c2ccc(Cl)s2)n1` the Potency was inconclusive: 22.4 µM [inhibitor, single point].
For `CCN(CC)c1ccccc1/C=C/[n+]1ccc(CCCCI)c2ccccc21`, the Potency was inconclusive: 10 µM [inhibitor, partial curve, poor fit].
In the case of `CCOc1ccc(/C=C(\C)C(=O)c2c(C)cc(C)[nH]c2=O)cc1`, the Potency is reported as “inactive”.
In the case of `CCCCNS(=O)(=O)c1ccc(NC(=O)c2c(-c3ccccc3)noc2C)cc1`, the Potency is reported as inconclusive: 22.4 µM [inhibitor, single point].
With `CSc1ccc(C2C(C#N)=C(N)N(c3ccccc3)C3=C2C(=O)CCC3)cc1` (centres undefined) the Potency was “inactive”.
In the case of `CC(CNS(=O)(=O)c1ccc2c(c1)NC(=O)CCS2)c1ccccc1` (centres undefined), the Potency is reported as “inactive”.
Potency is the fitted concentration of half-maximal effect; tags give direction and shape of the fitted curve.
